Measurements reported in the supplement of paper PMC10126150.
Sequences with one replicate were seen in a single cluster, so their values are uncertain.

Tested on: ATP
Assay: switch fluorescence ratio, 500 uM ATP over buffer (Cy3 cluster intensity, sum of 5 cycles each) (fold (ratio)); higher = stronger signal-on switching upon ATP binding; sequences stand for … in TCGTCGGCAGCGTCAGATGTGTATAAGAGACAGTTTTTTTTTTTTTTTTTTTTTTTTT…TC
Conditions: aptamer strand: ATP DNA aptamer (quencher-CACCTGGGGGAGTATTGCGGAGGAAGG + anchor), 100 nM annealed; ATP concentration: 500 uM; one replicate
In short: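 Between each of five buffer/ATP cycles, the flow-cell was stripped with NaOH and re-annealed. Each cycle imaged Cy3-labelled switching-strand clusters, annealed to 100 nM quencher-labelled ATP aptamer on a modified Illumina MiSeq flow-cell, first in selection buffer and then after 15 min with 500 uM ATP at 22 °C. The fluorescence ratio is summed target-cycle over summed buffer-cycle Cy3 intensity per cluster, averaged per switch-domain sequence, with clusters outside 100-1000 RFU excluded.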
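Note: ATP exposure 15 min at 22 °C before imaging.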

CGGCCCGGTA
switch fluorescence ratio: 1.02

AGCACGCTGA
switch fluorescence ratio: 1.01

CGCGATGCCC
switch fluorescence ratio: 2.07

ACCTTTTCCC
switch fluorescence ratio: 1.24

GCGGGGAGCA
switch fluorescence ratio: 0.996

GGGAGCAAGA
switch fluorescence ratio: 0.98

CCTGTGATGT
switch fluorescence ratio: 1.04

ACCTGTAC
switch fluorescence ratio: 1.47

TGTTTGCCAC
switch fluorescence ratio: 0.984

GATGAAATCT
switch fluorescence ratio: 1.05

CGTTGGTCTG
switch fluorescence ratio: 0.998

ACAACGGGG
switch fluorescence ratio: 1.02

ATCCGGTGAC
switch fluorescence ratio: 1.86

TACTGCGGCG
switch fluorescence ratio: 1.02

GGCGGCAAGG
switch fluorescence ratio: 1.01

TGTTGTCGT
switch fluorescence ratio: 0.918

TTCTGTGTTG
switch fluorescence ratio: 0.992

AGCTATGCAC
switch fluorescence ratio: 0.994

CAACAGCCAC
switch fluorescence ratio: 1.23

TGGTAAAATA
switch fluorescence ratio: 1.07

ATTTATCAAA
switch fluorescence ratio: 1.01

GAGCCTTAAT
switch fluorescence ratio: 0.972

ACATCGAAGA
switch fluorescence ratio: 1.01

AACTTTTAGC
switch fluorescence ratio: 1.02

CGCGCATGGA
switch fluorescence ratio: 1.06

ACGCGGACG
switch fluorescence ratio: 1.01

CTGTGAGCTT
switch fluorescence ratio: 1.19

GGAACGTGGG
switch fluorescence ratio: 0.992

AGGGTACCAC
switch fluorescence ratio: 0.996

GGGCACGGAG
switch fluorescence ratio: 1.01

GGGTTCTGAT
switch fluorescence ratio: 0.969

CTGCACGAGG
switch fluorescence ratio: 1.11

AGAAAAGTGC
switch fluorescence ratio: 1.02

AATTGCTGGG
switch fluorescence ratio: 1.04

CAAGACCATC
switch fluorescence ratio: 0.991

GGCTAGGGAT
switch fluorescence ratio: 0.971

CGCTGTGTGT
switch fluorescence ratio: 1

CCCAGGTACC
switch fluorescence ratio: 1.1

CATTTTCAGA
switch fluorescence ratio: 1

CCAAAGGTTG
switch fluorescence ratio: 1.01

GACAAGTTTT
switch fluorescence ratio: 0.985

TGATACAT
switch fluorescence ratio: 0.981

TTTACTGAGC
switch fluorescence ratio: 1.02

TATTACTAC
switch fluorescence ratio: 1.05

GCGGACTT
switch fluorescence ratio: 1.06

TAATAAAAAG
switch fluorescence ratio: 0.987

CTATCTCTGA
switch fluorescence ratio: 1.01

GAGATTCGGT
switch fluorescence ratio: 1.01

AATCGGGATA
switch fluorescence ratio: 0.971

TTGTAGCACT
switch fluorescence ratio: 1.06

GACTTTCCCC
switch fluorescence ratio: 1.15

CACGGAAGGC
switch fluorescence ratio: 1.92

AATAGGCA
switch fluorescence ratio: 0.986

TCCGTAGGTG
switch fluorescence ratio: 1.31

ATGGATATTG
switch fluorescence ratio: 0.966

ATTCTTGTGT
switch fluorescence ratio: 0.977

ATTTGATAAA
switch fluorescence ratio: 0.985

ACCATTGTAA
switch fluorescence ratio: 1.01

TCGCGGTGTA
switch fluorescence ratio: 0.992

ATTTGGAGGA
switch fluorescence ratio: 0.996

TAGCGAAATG
switch fluorescence ratio: 1.01

GGGAACAATA
switch fluorescence ratio: 0.985

ACGCACCAGG
switch fluorescence ratio: 2.15

ATATAGCTG
switch fluorescence ratio: 1.16

TAAAGGGATA
switch fluorescence ratio: 1.02

CAGTGTCATC
switch fluorescence ratio: 0.999

TAAAAGCGGC
switch fluorescence ratio: 1.07

ACCACACCGG
switch fluorescence ratio: 1.2

TTCAGCTATG
switch fluorescence ratio: 0.977

CCCATTCGAA
switch fluorescence ratio: 1.01

TTTGGCCTG
switch fluorescence ratio: 0.991

TCTGGTAATC
switch fluorescence ratio: 1.09

TTGCTTTTCA
switch fluorescence ratio: 1.01

GATAGGTCTG
switch fluorescence ratio: 0.993

ATTATGGAGT
switch fluorescence ratio: 1

CGAGTCGTT
switch fluorescence ratio: 1.02

GATATGTAA
switch fluorescence ratio: 1.02

ACTGCAGTTG
switch fluorescence ratio: 1.02

TCCTTTTGAA
switch fluorescence ratio: 0.993

ATACTGCCAC
switch fluorescence ratio: 1.38

TTGCTAGTT
switch fluorescence ratio: 0.999

AGACTGAGGA
switch fluorescence ratio: 1.02

CACTGTGCGA
switch fluorescence ratio: 1.13

ACCAGCCAAG
switch fluorescence ratio: 1.07

AGGTGAATGA
switch fluorescence ratio: 1.08

AGCAGGCACA
switch fluorescence ratio: 1.08

CGCCAGGGGC
switch fluorescence ratio: 1.17

GTGAATTCTG
switch fluorescence ratio: 0.987

GCTAGTGCAG
switch fluorescence ratio: 1.01

TTATCAGTAT
switch fluorescence ratio: 0.982

CATAGGAGCG
switch fluorescence ratio: 1.04

TCTAATGATA
switch fluorescence ratio: 0.997

CCCTAGGATG
switch fluorescence ratio: 1.46

TCTTAGTGAC
switch fluorescence ratio: 0.979

TATTAAGTGT
switch fluorescence ratio: 0.968

GTCTAAAAGG
switch fluorescence ratio: 1.05

TATACAACTG
switch fluorescence ratio: 0.982

AAAATTCTT
switch fluorescence ratio: 0.987

CGGTAGGGAT
switch fluorescence ratio: 0.997

GCCACACGTA
switch fluorescence ratio: 1.11

GGCTTATGCG
switch fluorescence ratio: 0.984

CAGGGTGTCG
switch fluorescence ratio: 1.04

GACTGTCAAT
switch fluorescence ratio: 0.974

GTTCTTCTTC
switch fluorescence ratio: 0.95

TCAAGTTCTA
switch fluorescence ratio: 1.01

GTCACTCTAA
switch fluorescence ratio: 1.04

TATCCTCATT
switch fluorescence ratio: 0.989

TAAAGGCCTT
switch fluorescence ratio: 1.01

TGTTTCAGGT
switch fluorescence ratio: 1.06

GGCGGCCATT
switch fluorescence ratio: 1.01

CAATATCAC
switch fluorescence ratio: 1.03

TTGCTTTTGA
switch fluorescence ratio: 1

CAACGTACGA
switch fluorescence ratio: 1.66

GTTACTTTGG
switch fluorescence ratio: 0.984

CGGATGAAAT
switch fluorescence ratio: 1.04

CCTAAGGGCA
switch fluorescence ratio: 1.01

TTCACCCGTG
switch fluorescence ratio: 1

CTATGAGATG
switch fluorescence ratio: 1

TGGGGCTGTT
switch fluorescence ratio: 1.04

TTTCGCTCCA
switch fluorescence ratio: 1.06

GTTACATATG
switch fluorescence ratio: 0.991

CCAACACACG
switch fluorescence ratio: 1.38

CCCTAAAAAA
switch fluorescence ratio: 0.99

AATATAGGCT
switch fluorescence ratio: 1.01

ACAGGTATGG
switch fluorescence ratio: 0.99

ATCCACAGCG
switch fluorescence ratio: 1.09

TTTATACAGT
switch fluorescence ratio: 1.04

GCGTACGCTT
switch fluorescence ratio: 0.96

ATGAGTGAAC
switch fluorescence ratio: 0.89

GGGTACAATA
switch fluorescence ratio: 1.03

ATCTAAACCG
switch fluorescence ratio: 1.1

CTGGTAGA
switch fluorescence ratio: 0.969

AGTTCGGTTG
switch fluorescence ratio: 0.939

GTTGGTGTGC
switch fluorescence ratio: 1

TACTAGGTGC
switch fluorescence ratio: 1.53

GAAAGGAAAT
switch fluorescence ratio: 1.01

GGTGCCGCTG
switch fluorescence ratio: 0.994

GTTGCTACGT
switch fluorescence ratio: 1

AGATCACACT
switch fluorescence ratio: 1.03

CATTTGAAAA
switch fluorescence ratio: 1.13

CGACCACGAT
switch fluorescence ratio: 1.13

AAAATGTATG
switch fluorescence ratio: 0.992

GCGGAAACCA
switch fluorescence ratio: 1.04

GCCTTTGGGG
switch fluorescence ratio: 1.03

CGTGCCTCGT
switch fluorescence ratio: 0.997

ACGGGAAACG
switch fluorescence ratio: 1.01

ACAGGATGCT
switch fluorescence ratio: 0.991

TACTCGCCCT
switch fluorescence ratio: 1.58

GCAATAAAGG
switch fluorescence ratio: 0.968

GTTCTTTAAA
switch fluorescence ratio: 0.982

TAGCTGGACG
switch fluorescence ratio: 1.03

CACGGGTTCG
switch fluorescence ratio: 1.02

TGCCTAAA
switch fluorescence ratio: 0.971

GTATCTGGTA
switch fluorescence ratio: 0.991

TCCAAGGTTG
switch fluorescence ratio: 1.01

CATAATGAGC
switch fluorescence ratio: 0.947

TAATTCGTTT
switch fluorescence ratio: 1.04

AAGTAATTGG
switch fluorescence ratio: 0.971
